Some of the results follow. Single values are uncertain, as repeats are few or missing.
How the values were obtained:
Test in all cases: cell count relative to DMSO control; melanoma cells; higher = more viable cells
Conditions in all cases: library dose: standard library concentration; 72 h
[1] = tested on: G361
[2] = tested on: IPC-298
[3] = tested on: IST-MEL1
[4] = tested on: LB2518-MEL
[5] = tested on: LOXIMVI
[6] = tested on: MEL-HO
[7] = tested on: MZ2-MEL
[8] = tested on: MeWo
[9] = tested on: RPMI7951
[10] = tested on: RVH-421
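Further: cells treated in 1,536-well plates, then fixed and DAPI-stained, with nuclei counted from automated high-throughput microscope images.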

Row | SMILES | cell count [1] | cell count [2] | cell count [3] | cell count [4] | cell count [5] | cell count [6] | cell count [7] | cell count [8] | cell count [9] | cell count [10]
1 | Cc1nc(Nc2ncc(C(=O)Nc3c(C)cccc3Cl)s2)cc(N2CCN(CCO)CC2)n1 [dasatanib] + O=C(O)c1ccc(-c2c[nH]c3ncc(-c4ccccc4)cc23)cc1C1CCCC1 [GSK650394] (first compound 0.02 µM, partner dose 0.8 µM) | 59.3% | 98.6% | 53.6% | 101% | 26.6% | 69.9% | 61.8% | 80.1% | 37.8% | 55.4%
2 | NCC(=O)Nc1ccc(-n2nc(C(F)(F)F)cc2-c2ccc3c(ccc4ccccc43)c2)cc1 + CCN(CC)CCCCNc1ncc2cc(-c3cc(OC)cc(OC)c3)c(NC(=O)NC(C)(C)C)nc2n1 [PD173074] (first compound 5 µM, partner dose 0.5 µM) | 94.6% | 58.3% | 101% | 95.6% | 78.3% | 84.1% | 100% | 86.9% | 85.7% | 151%
3 | Cc1nc(Nc2ncc(C(=O)Nc3c(C)cccc3Cl)s2)cc(N2CCN(CCO)CC2)n1 [dasatanib] + Nc1cccc2c1CN(C1CCC(=O)NC1=O)C2=O [lenalidomide] (first compound 0.02 µM, partner dose 5 µM) | 67.7% | 81.6% | 65.5% | 72.4% | 35.4% | 66.4% | 61.7% | 68.2% | 38.4% | 149%
4 | NCC(=O)Nc1ccc(-n2nc(C(F)(F)F)cc2-c2ccc3c(ccc4ccccc43)c2)cc1 + CN(NC(=O)CC(=O)NN(C)C(=S)c1ccccc1)C(=S)c1ccccc1 [STA4783] (first compound 5 µM, partner dose 0.03 µM) | 63.4% | 67% | 40.9% | 24.9% | 61.2% | 60% | 101% | 21.6% | 49.4% | 63.2%
5 | NC(=O)Nc1cc(-c2cccc(F)c2)sc1C(=O)N[C@H]1CCCNC1 + CN(NC(=O)CC(=O)NN(C)C(=S)c1ccccc1)C(=S)c1ccccc1 [STA4783] (first compound 0.1 µM, partner dose 0.03 µM) | 38.1% | 91.4% | 23.7% | 19.2% | 43.6% | 76.1% | 117% | 13.4% | 34.4% | 59.6%
6 | OCCn1cc(-c2cnc3nnn(Cc4ccc5ncccc5c4)c3n2)cn1 + CN(C)S(=O)(=O)c1ccc2c(c1)/C(=C/c1cc3c([nH]1)CCCC3)C(=O)N2 [SU6656] (first compound 5 µM, partner dose 2 µM) | 69.5% | 60.5% | 74.4% | 75.2% | 95.1% | 81.6% | 100% | 65.9% | 40.9% | 64.6%
7 | OCCn1cc(-c2cnc3nnn(Cc4ccc5ncccc5c4)c3n2)cn1 + O=C(O)C(=O)Nc1sc2c(c1C(=O)O)CCNC2 [TCS401] (first compound 5 µM, partner dose 8.33333 µM) | 106% | 85.8% | 97% | 81.1% | 111% | 96.8% | 95.2% | 97.2% | 106% | 121%
8 | Cc1nc(Nc2ncc(C(=O)Nc3c(C)cccc3Cl)s2)cc(N2CCN(CCO)CC2)n1 [dasatanib] + COC(=O)c1sccc1S(=O)(=O)Nc1ccc(Nc2ccccc2)cc1OC [GSK0660] (first compound 0.02 µM, partner dose 5 µM) | 74.9% | 90.4% | 67.5% | 97.5% | 33.2% | 78.5% | 39.6% | 113% | 37.2% | 52%
9 | NCC(=O)Nc1ccc(-n2nc(C(F)(F)F)cc2-c2ccc3c(ccc4ccccc43)c2)cc1 + COc1ccc2c(c1)CCC1C2CCC2(C)C(NCCCCCCN3C(=O)C=CC3=O)CCC12 [U73122] (first compound 5 µM, partner dose 2 µM) | 81.3% | 51.7% | 75.9% | 84.6% | 86.2% | 84.4% | 71.8% | 86.7% | 64.5% | 61.3%
10 | OCCn1cc(-c2cnc3nnn(Cc4ccc5ncccc5c4)c3n2)cn1 + N#Cc1c(O)c2c(-c3ccc(-c4ccccc4O)cc3)csc2[nH]c1=O [A769662] (first compound 5 µM, partner dose 10 µM) | 91.7% | 88.3% | 86.6% | 106% | 95.2% | 95.1% | 103% | 83.9% | 74.9% | 73.7%

— the supplement of paper PMC4604168 (melanoma cell lines)
